Measurements reported in a collection of fitness landscapes (doi:10.1016/j.celrep.2020.107928).
Whole data set: some 81,000 sequences, median “one-hybrid fitness for binding NBS DNA” near -0.1, cut for the highest 2% near 0.36. The list shows a part of the results.

B1: Caulobacter ParB omega fusion; a variant is named by its letters at X, in order, B8GW30 (parent)
chain: MESVVVGEPGMSEGRRGLGRGLSALLGEVDAAPAQAPGEQLGGSREAPIEILQRNPDQPRRTFREEDLEDLSNSIREKGVLQPILVRPSPDTAGEYQIVAGERAWRAAQRAGLKTVPIMVRELDDLAVLEIGIIENVQRADLNVLEEALSYKVLMEKFERTQENIAQTIGKSXSHVANXMRLLXLPDEVQSYLVSGELTAXHARAIAAAADPVALAKQIIEGGLSVRETEALARKAPNLSAGKSKGGRPPRVKDTDTQALESDLSSVLGLDVSIDHRGSTGTLTITYATLEQLDDLCNRLTRGI

Variants of: B1
Assay: one-hybrid fitness for binding NBS DNA (the Noc-binding site; scaled: cognate 1, non-cognate 0); higher = stronger binding
Conditions: with NBS DNA site
Summary of the method: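 Fitness is the rescaled log change in variant-to-wild-type read ratio, measured by Illumina sequencing of plasmids before and after bacterial one-hybrid selection. The scale puts cognate at 1 and non-cognate at 0. Selection of Caulobacter ParB libraries, four specificity codons randomised, took place in E. coli USO with a HIS3 reporter, site 19 bp from the promoter, over 48 hours at 37°C on M9-minus-histidine with 0.1 mM IPTG and 5 mM 3-AT.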

Variant | one-hybrid fitness for binding NBS DNA
CHLT | ≤ 0.2
GSAC | ≤ 0.2
PEHT | ≤ 0.2
APPP | ≤ 0.2
PPNN | ≤ 0.2
NYQR | ≤ 0.2
HSWR | ≤ 0.2
AHPV | ≤ 0.2
VHPD | ≤ 0.2
TGNT | ≤ 0.2
PCGW | ≤ 0.2
QWRW | ≤ 0.2
HTDM | ≤ 0.2
WPPF | ≤ 0.2
STQD | ≤ 0.2
VTTV | ≤ 0.2
QTEM | ≤ 0.2
RNEI | ≤ 0.2
APTR | ≤ 0.2
DYVR | ≤ 0.2
QSMY | ≤ 0.2
LSHE | ≤ 0.2
AKCW | ≤ 0.2
HYNG | ≤ 0.2

Variant | one-hybrid fitness for binding NBS DNA
ALTY | ≤ 0.2
PRAA | ≤ 0.2
LYFF | ≤ 0.2
HQHS | ≤ 0.2
MASY | ≤ 0.2
LRQY | ≤ 0.2
YLNF | ≤ 0.2
HHQT | ≤ 0.2
LDLA | ≤ 0.2
ELHI | ≤ 0.2
SYRI | ≤ 0.2
YIDL | ≤ 0.2
MSST | ≤ 0.2
VRLY | ≤ 0.2
HQWS | ≤ 0.2
PVLY | ≤ 0.2
LHTT | ≤ 0.2
PYTC | ≤ 0.2
PDFT | ≤ 0.2
KCQG | ≤ 0.2
QCHI | ≤ 0.2
SSHE | ≤ 0.2
EPQE | ≤ 0.2
SMQL | ≤ 0.2

Variant | one-hybrid fitness for binding NBS DNA
HYPL | ≤ 0.2
AFKK | ≤ 0.2
GPMK | ≤ 0.2
EDNG | ≤ 0.2
FQAE | ≤ 0.2
GTFG | ≤ 0.2
VQPF | ≤ 0.2
DRLV | ≤ 0.2
MNTC | ≤ 0.2
NWQR | ≤ 0.2
SLTS | ≤ 0.2
SGIY | ≤ 0.2
HYVK | ≤ 0.2
CFSC | ≤ 0.2
TNAC | ≤ 0.2
PYRV | ≤ 0.2
FMPC | ≤ 0.2
RYDI | ≤ 0.2
RCIR | 0.294
QLFN | ≤ 0.2
TPAQ | ≤ 0.2
HDTM | ≤ 0.2
PKEG | ≤ 0.2
TAPK | ≤ 0.2

Variant | one-hybrid fitness for binding NBS DNA
HRPL | ≤ 0.2
YEPV | ≤ 0.2
MAYH | ≤ 0.2
ERTF | ≤ 0.2
DDNR | ≤ 0.2
CPST | ≤ 0.2
YKDA | ≤ 0.2
YLEC | ≤ 0.2
EGYG | ≤ 0.2
PSSA | ≤ 0.2
HSDS | ≤ 0.2
ELWA | ≤ 0.2
QPSR | 0.44
ILCI | ≤ 0.2
HLDL | ≤ 0.2
LGWT | ≤ 0.2
PFTF | ≤ 0.2
PRMM | ≤ 0.2
GAMG | ≤ 0.2
TQSG | ≤ 0.2
RTAR | 0.548
DSWC | ≤ 0.2
TLWY | ≤ 0.2
NVSN | ≤ 0.2

Variant | one-hybrid fitness for binding NBS DNA
VEEC | ≤ 0.2
TNSY | ≤ 0.2
QFVS | ≤ 0.2
QQAL | ≤ 0.2
DFCS | ≤ 0.2
MTAS | ≤ 0.2
STTD | ≤ 0.2
RQAS | 0.38
SCLD | ≤ 0.2
IPNA | ≤ 0.2
LLWF | ≤ 0.2
VMAS | ≤ 0.2
HIRP | ≤ 0.2
VGHD | ≤ 0.2
NVTY | ≤ 0.2
WPGT | ≤ 0.2
GSVF | ≤ 0.2
YRTP | ≤ 0.2
LICC | ≤ 0.2
CPIE | ≤ 0.2
ETVC | ≤ 0.2
MGPS | ≤ 0.2
QTRD | 0.379
IHHC | ≤ 0.2

Variant | one-hybrid fitness for binding NBS DNA
TVCT | ≤ 0.2
HPAD | ≤ 0.2
QSKG | 0.302
EVKV | ≤ 0.2
WRGR | ≤ 0.2
GSKY | ≤ 0.2
SLWP | ≤ 0.2
IFQT | ≤ 0.2
AKNN | ≤ 0.2
ISYM | ≤ 0.2
KRFF | ≤ 0.2
KMRG | ≤ 0.2
RLFR | 0.247
LSSC | ≤ 0.2
FINK | ≤ 0.2
WPAY | ≤ 0.2
TIQT | ≤ 0.2
NIKT | ≤ 0.2
LTRI | ≤ 0.2
ACYV | ≤ 0.2
CHHR | ≤ 0.2
MTTM | ≤ 0.2
QAWN | ≤ 0.2
YPWF | ≤ 0.2

Variant | one-hybrid fitness for binding NBS DNA
PLMI | ≤ 0.2
RCPH | ≤ 0.2
TVTL | ≤ 0.2
HPMF | ≤ 0.2
FKPF | ≤ 0.2
VANF | ≤ 0.2
RHPI | ≤ 0.2
SLKS | ≤ 0.2
DAST | ≤ 0.2
IRRF | ≤ 0.2
RKGQ | ≤ 0.2
NILR | ≤ 0.2
KYMS | ≤ 0.2
RVNM | ≤ 0.2
EVTP | ≤ 0.2
GGRT | ≤ 0.2
TLKP | ≤ 0.2
SMYR | ≤ 0.2
DCRF | ≤ 0.2
NTPV | ≤ 0.2
ITPV | ≤ 0.2
PFPS | ≤ 0.2
LLRL | ≤ 0.2
IRSH | ≤ 0.2

Variant | one-hybrid fitness for binding NBS DNA
GQTI | ≤ 0.2
VNSW | ≤ 0.2
FIRG | ≤ 0.2
ILWT | ≤ 0.2
ILKV | ≤ 0.2
NEHN | ≤ 0.2
TQDC | ≤ 0.2
ITNM | ≤ 0.2
SDCL | ≤ 0.2
HMYG | ≤ 0.2
PMSQ | ≤ 0.2
YWTG | ≤ 0.2
IAQR | ≤ 0.2
SHEN | ≤ 0.2
MRLD | ≤ 0.2
APCS | ≤ 0.2
AQAS | ≤ 0.2
GAPI | ≤ 0.2
QAHF | ≤ 0.2
LTVY | ≤ 0.2
PSQT | ≤ 0.2
HSGR | ≤ 0.2
TPNM | ≤ 0.2
HGHS | ≤ 0.2

Variant | one-hybrid fitness for binding NBS DNA
LPFP | ≤ 0.2
RDEA | ≤ 0.2
RVDW | ≤ 0.2
IPDL | ≤ 0.2
RCWW | ≤ 0.2
LTSP | ≤ 0.2
KPTC | ≤ 0.2
KYHS | ≤ 0.2
SARE | ≤ 0.2
LQEY | ≤ 0.2
HFQT | ≤ 0.2
ECAA | ≤ 0.2
KRWC | ≤ 0.2
GNKQ | ≤ 0.2
NNTF | ≤ 0.2
WLKT | ≤ 0.2
CLHV | ≤ 0.2
GKVN | ≤ 0.2
QYRI | 0.282
FVCS | ≤ 0.2
GQCW | ≤ 0.2
GHHP | ≤ 0.2
AGIR | ≤ 0.2
SYHH | ≤ 0.2

Variant | one-hybrid fitness for binding NBS DNA
CLRF | ≤ 0.2
FDYV | ≤ 0.2
HEHG | ≤ 0.2
YGSA | ≤ 0.2
RALL | ≤ 0.2
CVKC | ≤ 0.2
QRFQ | 0.226
CIEC | ≤ 0.2
KGIW | ≤ 0.2
FWAS | ≤ 0.2
WSTK | ≤ 0.2
SMFG | ≤ 0.2
HWPM | ≤ 0.2
MLST | ≤ 0.2
LTRK | ≤ 0.2
AEPQ | ≤ 0.2
RQCM | ≤ 0.2
QQID | ≤ 0.2
RTID | ≤ 0.2
IAQG | ≤ 0.2
SWTC | ≤ 0.2
TAQA | ≤ 0.2
VAKV | ≤ 0.2
NWNT | ≤ 0.2

Variant | one-hybrid fitness for binding NBS DNA
VSRG | ≤ 0.2
SHQG | ≤ 0.2
PTTI | ≤ 0.2
QNAE | ≤ 0.2
QSKS | 0.645
PIRR | ≤ 0.2
GDTV | ≤ 0.2
RPPP | ≤ 0.2
RNMP | ≤ 0.2
VSWW | ≤ 0.2
YLQS | ≤ 0.2
FVPS | ≤ 0.2
NGMC | ≤ 0.2
RIFT | ≤ 0.2
IVSG | ≤ 0.2
MAQV | ≤ 0.2
FFNC | ≤ 0.2
RRQV | 0.309
TPTR | ≤ 0.2
LMDY | ≤ 0.2
NRKC | ≤ 0.2
WISE | ≤ 0.2
IPQM | ≤ 0.2
TPWR | ≤ 0.2

Variant | one-hybrid fitness for binding NBS DNA
RYAG | ≤ 0.2
MHQT | ≤ 0.2
RYMD | ≤ 0.2
YPTF | ≤ 0.2
PEMA | ≤ 0.2
YSES | ≤ 0.2
RDSR | ≤ 0.2
HRHN | ≤ 0.2
ISGT | ≤ 0.2
LLGY | ≤ 0.2
CTWR | ≤ 0.2
SQNK | ≤ 0.2
RDWV | ≤ 0.2
QRYE | 0.207
LGAF | ≤ 0.2
RIVM | ≤ 0.2
GSDE | ≤ 0.2
HQRW | ≤ 0.2
FYSS | ≤ 0.2
REYN | ≤ 0.2
AAPF | ≤ 0.2
DMMR | ≤ 0.2
GRRG | ≤ 0.2
WMAC | ≤ 0.2

Variant | one-hybrid fitness for binding NBS DNA
CYSI | ≤ 0.2
RWTV | ≤ 0.2
VYYR | ≤ 0.2
TTVP | ≤ 0.2
HGME | ≤ 0.2
GGGK | ≤ 0.2
VIPE | ≤ 0.2
LGTY | ≤ 0.2
RQWA | ≤ 0.2
VGQC | ≤ 0.2
TAYD | ≤ 0.2
MDQR | ≤ 0.2
EHNF | ≤ 0.2
TGNV | ≤ 0.2
TWMD | ≤ 0.2
NGER | ≤ 0.2
RTAD | ≤ 0.2
TNRH | ≤ 0.2
